These results are taken from PubChem BioAssay AID1346428 (National Center for Advancing Translational Sciences (NCATS), 2018).

Where “and” joins values, the source holds several entries; their conditions need not be identical. Equal values may be shown once. The whole screen tested about 48,000 compounds, of which about 1,200 (2.5%) were called active. Inconclusive results (about 2%) are left out.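 Rule for the calls: active = activation of at least 60% and not above a set upper limit (about 1 call in 100 departs from these limits); inconclusive = activation of 40% to 60%, or above that upper limit; inactive = activation under 40%.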 This is one part of the list. Some structures have more than one record in an assay (separate samples or runs), and their calls can disagree.

UniProt O75388, sequence (O75388 whole entry, looked up, the tested form may be a part): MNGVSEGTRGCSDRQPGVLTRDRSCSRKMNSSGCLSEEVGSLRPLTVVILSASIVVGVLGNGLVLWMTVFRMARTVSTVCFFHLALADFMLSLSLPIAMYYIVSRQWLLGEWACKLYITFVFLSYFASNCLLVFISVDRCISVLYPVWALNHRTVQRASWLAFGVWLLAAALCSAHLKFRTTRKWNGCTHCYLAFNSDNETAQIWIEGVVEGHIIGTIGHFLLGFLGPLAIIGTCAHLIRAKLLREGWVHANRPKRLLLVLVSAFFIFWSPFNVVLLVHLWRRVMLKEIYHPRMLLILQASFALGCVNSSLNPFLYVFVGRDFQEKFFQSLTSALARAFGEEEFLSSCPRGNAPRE

For the assay, the target named is Probable G-protein coupled receptor 32 (Homo sapiens) (UniProt O75388). Nature of the assay: qHTS for Agonists of Human Resolvin D1 Receptor DRV1. Note: 0% is about no effect. The following applies: CHO-K1 GPR32 beta-arrestin PathHunter luminescence, 90 min; at 76.9 µM; stronger effect = higher value; zero percent set by DMSO-only wells. The method, boiled down:
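Agonism was scored by beta-Gal fragment complementation (chemiluminescent read, 1 h detection at ambient temperature) reporting beta-arrestin binding to GPR32 in engineered CHO-K1 cells. Compound treatment lasted 90 min at 37 C, normalized to a DMSO basal control.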
For `COc1ccc(CNC(=O)CN2C(=O)COc3ccccc32)c(OC)c1`, the activation was inactive: -7.68%. The figure for `Oc1ccccc1-c1nc2cnccn2c1Nc1ccc(Cl)cc1` is inactive: 30.9%; for `CC(=O)c1ccc(NC(=O)C2CCN(S(=O)(=O)c3c(C)noc3/C=C/c3ccc(C)cc3)CC2)cc1` it is inactive: -5.34%. The figure for `COc1ccc(-c2nn3c(-c4ccccc4)nnc3c3ccccc23)cc1` is inactive: 11.1%; for `CCOc1ccc(CNC(=O)CCCn2c(=O)c3cccn3c3cccnc32)cc1` it is inactive: -15.9%.

In the case of `CCOc1ccc(C(=O)N2CCc3cc(OC)c(OC)cc3C2COc2ccc3c(C)cc(=O)oc3c2)cc1OCC` (configuration not stated), the activation was inactive: -5.16%. On to `CCCOc1ccc(OC(=O)c2ccc(-c3ccc(CCC)cn3)cc2)cc1`, for which the activation was inactive: 1.31%. The figure for `O=S(=O)(NCCc1csc(-c2cccc(F)c2)n1)c1cc(F)ccc1F` is inactive: 24.6%; for `Cc1ccccc1Cn1c(SCc2ccc(C(=O)N3CCCCC3)cc2)nc2ccncc21` it is inactive: 1.16%; for `COC(=O)c1c(NC(=O)CCCOc2ccc(C)cc2)sc2c1CCCC2` it is inactive: 7.68%. With `CCn1c(C(=O)Nc2ccccc2C(=O)OC)cc2sc(Cl)cc21`, the activation was inactive: -1.45%. The figure for `CCCCCCCCCCOc1cc2c(=O)c(C(=O)OCC)c[nH]c2cc1OCC` is inactive: -3.91%; for `COc1ccc(CCNC(=O)c2cc(Nc3ccccc3)nc3ccccc23)cc1OC` it is inactive: -26.1%. Consider `O=C1CCc2cc(S(=O)(=O)NCc3ccccc3)cc3c2N1CC3`, for which the activation is inactive: -1.25%. For `COc1cc(NC(=O)CCNC(=O)Cn2ccc3ccccc3c2=O)cc(OC)c1OC`, the activation was inactive: -6.29%.

Consider `Cc1ccc(NC(=O)Cn2c(=O)n(Cc3ccc(F)cc3)c(=O)c3cccnc32)cc1C`, for which the activation was inactive: -4.7%. For the compound `O=C(Nc1ccc(S(=O)(=O)N(Cc2ccccc2)c2ccccc2)cc1)c1ccccc1F`, the activation is inactive: -0.0334%.

For `Cc1nc2c(c(C)nn2-c2ccccc2)c(C)c1CCC(=O)Nc1ccccc1`, the activation was inactive: 9.44%. On to `COC(=O)c1ccccc1NC(=O)CCCn1c(C)c2cnn(-c3ccccc3)c(=O)c2c1C`, for which the activation was inactive: -37.1%. The figure for `CCCn1ccc2c(OCC(=O)Nc3ccccc3C(=O)OCC)cccc2c1=O` is inactive: -20.7%; for `O=C(CCCCn1c(=O)c2ccccc2n(Cc2ccc(F)cc2Cl)c1=O)NCCc1ccc(Cl)cc1` it is inactive: -1.11%.

Take `COc1ccc(-c2nnc(SCCOc3ccccc3C)o2)cc1OC`: the activation was inactive: 10.9%. `O=S(=O)(c1ccc(Cl)cc1)c1nc(-c2cccs2)oc1SCc1ccccc1F`: the activation is inactive: -18.6%. The figure for `Cc1cn(C)c(CC(=O)Nc2ccc(F)cc2Cl)c1C(=O)O` is inactive: -0.559%; for `Cc1cc(C)cc(OCCSc2nc3ccc(NC(=O)COc4ccccc4)cc3s2)c1` it is inactive: -4.44%; for `Cc1ccc(OCC(=O)Nc2nonc2-c2ccc(Br)cc2)cc1C` it is inactive: -3.68%.

For `O=C(c1ccc(F)cc1)C1CCN(CCn2c(=O)[nH]c3ccccc3c2=O)CC1`, the activation was active: 82.3% and inactive: -6.34%. The figure for `COc1ccc(-c2ccc(NS(=O)(=O)c3cc(C)c(C)cc3C)cc2)nn1` is inactive: -4.83%. The figure for `CCn1nc(C)c2c(-c3ccccc3)cc(=O)n(C(C)C(=O)Nc3cc(C)ccc3C)c21` (configuration not stated) is inactive: -13.7%; for `O=C(Nc1nc2c(F)cccc2s1)c1ccc(S(=O)(=O)N2CCCc3ccccc32)cc1` it is inactive: -6.37%. `CCOC(=O)C(CC)N1CCN(Cc2ccc(F)cc2)C(=O)C1=O` (configuration not stated): the activation was inactive: -37.4%. `COc1ccc(N2CCN(C(=O)C(C)n3nc(C)c4sc5ccccc5c4c3=O)CC2)cc1` (configuration not stated): the activation is inactive: -25.7%. The figure for `CCc1ccc(NC(=O)Cn2nc(SC)c(S(=O)(=O)c3ccc(OC)cc3)c2N)cc1` is inactive: 15.3%. The figure for `Clc1ccc(CCNC(c2ccc(Cl)cc2)c2nnc(-c3ccccc3)o2)cc1` (configuration not stated) is inactive: -23.5%; for `CCOC(=O)c1c(NC(=O)C2c3ccccc3Oc3ccccc32)sc2c1CCC(CC)C2` (configuration not stated) it is inactive: -13%. The figure for `CCc1ccc(NC(=O)Cn2c(=O)n(CCCC(=O)NCc3ccc4c(c3)OCO4)c(=O)c3ccccc32)cc1` is inactive: -7.44%; for `CCOC(=O)c1c(S(=O)(=O)N2CCCC(C(=O)N3CCN(c4cc(C)ccc4C)CC3)C2)c(C)n(C)c1C` (configuration not stated) it is inactive: 14%. In the case of `CCS(=O)(=O)NCC(c1ccco1)N1CCN(c2ccc(F)cc2)CC1` (configuration not stated), the activation is inactive: 15.6%. Turning to `CC(=O)C1=C(c2cccc([N+](=O)[O-])c2)N(C(C)=O)n2c(nnc2-c2ccc(C)cc2)S1`, the activation was inactive: -11.8%.

`Cc1nc(SCC(=O)Nc2ccc(C)c(Cl)c2)cc(-c2ccccc2)n1`: the activation is inactive: -20.7%. The figure for `CCOc1ccc(C(=O)Oc2c(Sc3ccccc3)c(C)nn2C(C)(C)C)cc1OCC` is inactive: 2.46%.

On to `CCc1ccc2occ(CC(=O)Nc3ccc(OC)c(Cl)c3)c2c1`, for which the activation is inactive: 6.44%. The figure for `COc1ccc(CN(Cc2ccco2)C(=O)COc2ccccc2OC)cc1` is inactive: -4.72%. The figure for `CC(=O)c1ccc(NC(=O)Nc2sc3nc4n(c(=O)c3c2C)CCC(C)CC4)cc1` (configuration not stated) is inactive: -2.22%; for `CCc1ccccc1-n1cnc2cc(C(=O)NC3CCCCCC3)ccc21` it is inactive: -18.6%. The figure for `CC(C)c1ccc(CNC(=O)c2ccc(N3CCCC3)c(NC(=O)NCc3ccccc3)c2)cc1` is inactive: -31.7%.

For the compound `O=C(c1ccc2c(c1)CCN2S(=O)(=O)c1ccccc1)N1CCN(c2ccccc2F)CC1`, the activation was inactive: -4.37%.

As to `O=C(Nc1ccccc1Cl)[C@H](CSCc1ccccc1)N1Cc2ccccc2C1=O`, the activation is inactive: -10.8%. The figure for `COc1ccccc1N1CCN(S(=O)(=O)c2ccc(F)c(C(=O)Nc3ccc(Cl)cc3C(F)(F)F)c2)CC1` is inactive: -14.3%; for `O=C(CN1C(=O)CSc2ccc(S(=O)(=O)N3CCCC3)cc21)NCc1ccccc1Cl` it is inactive: -21.6%; for `COc1ccc(-c2nnc(SC(C)C(=O)O)o2)cc1` (configuration not stated) it is inactive: 21%. Take `CSc1ccc(-c2nc3cccc(C)n3c2Nc2ccc3c(c2)OCO3)cc1`: the activation was inactive: -19.4%. The figure for `COc1ccc(N2C(=O)C(CC(=O)Nc3ccccc3)N(CCC3=CCCCC3)C2=O)cc1` (configuration not stated) is inactive: 4.93%; for `CCCCNC(=O)CCc1c(C)nc2cc(-c3ccccc3)nn2c1C` it is inactive: -3.78%.

With `CC(=O)N1CCCc2cc(S(=O)(=O)N3CCCC(C(=O)NC(C)C)C3)ccc21` (configuration not stated), the activation was inactive: -2.15%. Turning to `Cc1ccc(OCC(=O)Nc2c(C(=O)c3ccc(Cl)cc3)oc3ccccc23)cc1C`, the activation was inactive: -5.54%. The figure for `CC(C)Oc1ccc(CNC(=O)c2sc3ncccc3c2-n2cccc2)cc1` is inactive: -7.75%; for `CO[C@H]1C=CO[C@@]2(C)Oc3c(C)c(O)c4c(O)c(c(/C=N/N5CCN(C)CC5)c(O)c4c3C2=O)NC(=O)/C(C)=C\C=C[C@H](C)[C@H](O)[C@@H](C)[C@@H](O)[C@@H](C)[C@H](OC(C)=O)[C@@H]1C` it is inactive: -81.2%. The figure for `CCOc1ccc(C2c3c(oc4ccc(C)cc4c3=O)C(=O)N2CCCN(C)C)cc1OC` (configuration not stated) is inactive: -26.7%; for `Cc1cc(-c2ccc(S(=O)(=O)Nc3ccc(Cl)cc3)cc2)on1` it is inactive: 2.49%; for `COc1ccc(-n2nc(C(=O)Nc3ccc(C(C)=O)cc3)nc2-c2ccccc2)cc1` it is inactive: -0.488%. On to `Cc1ccccc1Nc1nc(N)c(C(=O)c2ccccc2Cl)s1`, for which the activation is inactive: -32.2%. The figure for `Cc1cc2oc(C(=O)N(Cc3ccc(N(C)C)cc3)Cc3ccco3)c(C)c2cc1Cl` is inactive: -28.8%; for `CCCCc1ccc(NC(=O)CSc2nc(=O)[nH]c3c2CCCC3)cc1` it is inactive: 6.56%; for `O=C(CSc1nc2c([nH]c3ccccc32)c(=O)n1-c1ccccc1F)Nc1cccc(C(F)(F)F)c1` it is inactive: -11.6%. The figure for `O=C1C(=O)N(C2CCN(C(=O)c3cccc(Cl)c3)CC2)CCN1Cc1ccc(F)cc1` is inactive: -10.7%; for `CCOc1ccc(S(=O)(=O)N2CCN(Cc3nc4ccc(C)cc4o3)CC2)cc1` it is inactive: -7.05%. In the case of `Cc1ccc(C)c(NC(=O)CSc2ccc3nc(-c4ccccc4)cn3n2)c1`, the activation is inactive: -5.69%. As for `CCOc1ccc(CCNC(=O)Cn2c(-c3cccs3)cc3ccccc32)cc1OCC`, the activation was inactive: -49.4%. Take `O=C(Nc1cccc(C(=O)OCc2cc(=O)n3nc(C4CC4)sc3n2)c1)c1cccc(Cl)c1`: the activation was inactive: -9.62%. In the case of `COc1ccc(Nc2oc(/C=C/c3ccccc3OC)nc2C#N)cc1`, the activation was inactive: 8.36%. The figure for `COC(=O)CCN(c1ccccc1)C(CNS(=O)(=O)c1ccccc1)c1ccccc1` (configuration not stated) is inactive: -8.27%; for `CCOc1ccc(NC(=O)c2cnc3sc(N4CCOCC4)nn3c2=O)cc1` it is inactive: -12.9%. The figure for `COc1cccc(N2CC(NC(=O)COc3ccccc3F)CC2=O)c1` (configuration not stated) is inactive: -8.16%. The figure for `O=C(Nc1ccccc1Br)c1cc(CN2CCCC2)on1` is inactive: -9.24%. For the compound `Cc1nc2cc(-c3cccc(F)c3)nn2c(C)c1CCC(=O)NC(C)c1ccccc1` (configuration not stated), the activation is inactive: -1.6%. Regarding `COc1cc(C(=O)NCCc2sc(-c3cccc(F)c3)nc2C)cc(OC)c1OC`, the activation was inactive: -12.4%.

For the compound `O=C(CSc1oc(-c2ccc(F)cc2)nc1S(=O)(=O)c1ccccc1)NC1CCCCC1`, the activation was inactive: -7.69%. Consider `CCSc1nnc(NC(=O)c2cc(=O)c3cc(C)ccc3o2)s1`, for which the activation is inactive: 28.3%. The figure for `CCc1ccc(CNC(=O)c2ccc(-c3nc(CSc4ccc(C)cc4)c(C)o3)cc2)cc1` is inactive: -10.4%; for `COC(=O)c1c(NC(=O)C2c3ccccc3Oc3ccccc32)sc2c1CCC(C(C)(C)C)C2` (configuration not stated) it is inactive: 1.75%. The figure for `COc1cc2c(cc1NC(=O)c1ccccc1C)n(C)c(=O)n2C` is inactive: 15.8%.
